Measured values: PubChem BioAssay AID686979 (National Center for Advancing Translational Sciences (NCATS), 2013)
The whole screen tested about 420,000 compounds, of which about 50,000 (12%) were called active. Not shown: some 26% with an inconclusive outcome. The call rests on the fitted dose curve; in most records, active means well fitted inhibition curve with a large enough effect; inconclusive means small, poorly fitted or top-dose-only effect; inactive means flat fitted curve, though single readings scatter. This is a selection; strong and weak results do not stand in their true shares. A structure can be active in one record and inactive in another.
On the % scale 0 is the no-effect control and ±100 the full control effect; potency means the concentration at half of the fitted maximal effect.

Assay: qHTS for Inhibitors of human tyrosyl-DNA phosphodiesterase 1 (TDP1): qHTS in cells in presence of CPT; further: nearly all actives have a fitted effect of over 55% in size
Conditions: chicken DT40 Tdp1-/-;hTDP1 cells + 20 nM CPT, ATP luminescence, 48 h; series mostly up to 46.2 µM; activity change, negative = growth inhibition: at the top concentration
How it was run: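 Cell growth measured by CellTiter-Glo luminescence after a minimum 48 h, 37 C compound exposure with 20 nM CPT in Tdp1-knockout DT40 cells stably expressing hTDP1, seeded 400/well; qHTS titration format.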
In the case of `Nc1ccn(C2OC(CO)C(O)C2O)c(=O)n1` (stereo not drawn), the Potency is reported as active: 0.0164 µM. In the case of `CCOc1cc(NC(=S)NCC(C)C)c(OCC)cc1NC(=O)c1ccco1`, the Potency is reported as active: 14.6 µM. In the case of `Cc1cccc(NC(=O)Nc2ccc(Br)cc2)n1`, the “activity change, negative = growth inhibition” value is reported as inactive: -10.5%. For `CCOC(=O)c1c(NC(=O)c2cc(CC(C)C)on2)sc(C(C)=O)c1C`, the “activity change, negative = growth inhibition” value was inactive: -27.7%. With `COc1cc(NC(=O)N2CCC3(CC2)Nc2ccccc2-n2cccc23)cc(OC)c1OC` the Potency was active: 20.6 µM. For `Cc1noc(C)c1COc1cccc(C(=O)NCCc2c[nH]c3ccccc23)c1`, the Potency was active: 13 µM. In the case of `C[C@@H]1CN([C@H](C)CO)C(=O)CCCn2nncc2CO[C@H]1CN(C)Cc1ccc2c(c1)OCCO2`, the “activity change, negative = growth inhibition” value is reported as inactive: 5.61%. For `COc1ccc(S(=O)(=O)N2CCC[C@H]2C(=O)N2CCC[C@H]2C(=O)NCc2ccncc2)cc1C`, the “activity change, negative = growth inhibition” value was inactive: -35.1%. With `CCCCCCCCn1c2c(c(=N)c3ccccc31)CCC2` the Potency was active: 0.411 µM. In the case of `COc1ccc(-n2c(C)c3c(C)nnc(C)c3c2C)cc1OC`, the Potency is reported as active: 16.4 µM. For `CC(=O)C1=CCC(c2ccccc2)N(S(=O)(=O)c2ccccc2C)C1` (stereo not drawn), the “activity change, negative = growth inhibition” value was inactive: -26.9%. With `CCOc1ccc(NC(=O)N2CCC(c3ccc(C)cc3)C2)cc1` (stereo not drawn) the “activity change, negative = growth inhibition” value was inactive: -23.4%. With `O=C(CCc1ccccc1)N[C@@H]1c2ccccc2CC[C@@H]1OCc1ccccc1` the “activity change, negative = growth inhibition” value was inactive: -23.6%. With `O=C(Cn1c(C(=O)OCCO)cc2ccccc21)c1ccccc1` the Potency was active: 8.2 µM. In the case of `COc1ccc(NC(=O)CN(C)S(=O)(=O)c2cccc3nsnc23)cc1`, the “activity change, negative = growth inhibition” value is reported as inactive: -22.5%. With `O=C(NCc1ccco1)c1cc(S(=O)(=O)N2CCCc3ccccc32)ccc1Cl` the Potency was active: 14.6 µM. In the case of `COc1cc(NS(=O)(=O)c2ccc(N)cc2)ncn1`, the “activity change, negative = growth inhibition” value is reported as inactive: 4.62% [at 21.1 µM]. In the case of `COc1ccc(C(=O)Nc2nnc(S(=O)(=O)N3CCC(C)CC3)s2)cc1OC`, the “activity change, negative = growth inhibition” value is reported as inactive: -13.3%. In the case of `O=C(NCCc1ccccc1)c1ccc(CSc2nc3ccncc3n2Cc2ccccc2F)cc1`, the Potency is reported as active: 14.6 µM. For `C[C@H](CO)N1C[C@H](C)[C@@H](CN(C)C(=O)NC2CCCC2)Oc2cc(Br)ccc2S1(=O)=O`, the “activity change, negative = growth inhibition” value was inactive: -29.8%. With `Cc1ccc(S(=O)(=O)N(C)C[C@H]2OCc3cnnn3CCCC(=O)N([C@@H](C)CO)C[C@H]2C)cc1` the “activity change, negative = growth inhibition” value was inactive: -11.8%. In the case of `COc1cccc(CC(=O)NCC2(N3CCCCC3)CCCCC2)c1`, the “activity change, negative = growth inhibition” value is reported as inactive: 17.8%. With `COc1ccc(Cl)cc1C(=O)NCCc1ccc(S(=O)(=O)NC(=O)NC2CCCCC2)cc1` the Potency was “inactive”. With `CC[C@@H]1[C@H]2CCCC(=O)N3CC[C@@H](C[C@@H]1OC(=O)NCc1ccccc1)[C@@H]23` the “activity change, negative = growth inhibition” value was inactive: -2.62%. In the case of `C[C@@H]1CN([C@@H](C)CO)C(=O)CCCn2nncc2CO[C@H]1CN(C)S(=O)(=O)c1ccc2c(c1)OCCCO2`, the “activity change, negative = growth inhibition” value is reported as inactive: 6.38%. With `COc1cccc(-n2cc(C(=O)NCc3ccc(C)cc3)c3ccccc3c2=O)c1` the Potency was active: 14.6 µM. For `COc1cc(C(=O)N2CCCc3ccccc32)cc(OC)c1OC`, the Potency was active: 18.4 µM. For `CCOC(=O)[C@@H]1[C@H]2COc3cc(OC)ccc3[C@H]2N2C(=O)N(c3ccccc3)C(=O)[C@]12C`, the “activity change, negative = growth inhibition” value was inactive: 6.2%. In the case of `CCN(CCCCOC(=O)c1ccc(OC)c(OC)c1)C(C)Cc1ccc(OC)cc1` (stereo not drawn), the Potency is reported as “inactive”. For `CCOc1ccccc1NC(=O)CCS(=O)(=O)c1ccc(OC)cc1`, the “activity change, negative = growth inhibition” value was inactive: -14.9%. For `Cc1ccc(Cn2ccnc2SCC(=O)NC2CCCC2)cc1`, the “activity change, negative = growth inhibition” value was inactive: 2.69%. For `CC(=O)Nc1cccc(NC(=O)CSc2nccn2Cc2ccco2)c1`, the “activity change, negative = growth inhibition” value was inactive: -23.3%. With `CCOC(=O)N1CCN(S(=O)(=O)N2CCCC(C(=O)NCc3ccccc3OC)C2)CC1` (stereo not drawn) the “activity change, negative = growth inhibition” value was inactive: -25.4%. In the case of `COc1ccc(/C=N/NS(=O)(=O)c2ccccc2)cc1OC`, the Potency is reported as active: 20.6 µM. With `C[C@H](O)[C@H](O)[C@H]1CNc2nc(N)[nH]c(=O)c2N1` the “activity change, negative = growth inhibition” value was inactive: -1.79%. With `CC(=O)Nc1ccccc1NC(=O)c1cccc2ccccc12` the “activity change, negative = growth inhibition” value was inactive: 1.36%. In the case of `OC(CCN1CCCC1)(c1ccccc1)C1CCCCC1` (stereo not drawn), the Potency is reported as “inactive”. For `CC(CN(C)C)CN1c2ccccc2CCc2ccccc21` (stereo not drawn), the “activity change, negative = growth inhibition” value was inactive: 4.14%. In the case of `COC(=O)[C@H]1[C@H]2C[C@H]3c4[nH]c5ccccc5c4CCN3C[C@H]2CC[C@@H]1O`, the Potency is reported as “inactive”. In the case of `COc1cc(C(=O)Nc2ccc(S(=O)(=O)N(C)c3ccccc3)cc2)cc(OC)c1OC`, the Potency is reported as active: 16.4 µM. With `COc1ccc(/C=C/C(=O)N[C@@H](C)C(=O)O)cc1` the “activity change, negative = growth inhibition” value was inactive: 38.6%. In the case of `CC(C)(C)NC(=O)[C@H]1CC[C@H]2[C@@H]3CC[C@H]4NC(=O)C=C[C@]4(C)[C@H]3CC[C@]12C`, the “activity change, negative = growth inhibition” value is reported as inactive: -28.3%. For `Cc1cc(=O)oc2cc(OCC(=O)N3c4ccccc4CC3C)ccc12` (stereo not drawn), the Potency was active: 4.11 µM. With `COc1cc(Cl)c(C)cc1NC(=O)c1ccc2c(SCC(=O)O)c3c(nc2c1)CCCC3` the “activity change, negative = growth inhibition” value was inactive: 1.68%. For `C/C(=N/NC(=O)c1ccncc1)C1=C(O)CC(C)(C)CC1=O`, the “activity change, negative = growth inhibition” value was inactive: 31.5%. For `CNC[C@H]1Oc2cc(Br)ccc2S(=O)(=O)N([C@@H](C)CO)C[C@H]1C`, the “activity change, negative = growth inhibition” value was inactive: -21.5%. In the case of `O=C(Nc1cccc(Cl)c1Cl)c1cc(S(=O)(=O)NCCc2ccccc2)ccc1F`, the “activity change, negative = growth inhibition” value is reported as inactive: -14%. For `C[C@H](CO)N1C[C@H](C)[C@@H](CN(C)C(=O)Nc2ccc(C(F)(F)F)cc2)Oc2c(NC(=O)NC3CCCCC3)cccc2C1=O`, the “activity change, negative = growth inhibition” value was inactive: -83.7%.
